To fix the notation:
B1: Caulobacter ParB omega fusion; a variant is named by its letters at X, in order, B8GW30 (parent)
chain: MESVVVGEPGMSEGRRGLGRGLSALLGEVDAAPAQAPGEQLGGSREAPIEILQRNPDQPRRTFREEDLEDLSNSIREKGVLQPILVRPSPDTAGEYQIVAGERAWRAAQRAGLKTVPIMVRELDDLAVLEIGIIENVQRADLNVLEEALSYKVLMEKFERTQENIAQTIGKSXSHVANXMRLLXLPDEVQSYLVSGELTAXHARAIAAAADPVALAKQIIEGGLSVRETEALARKAPNLSAGKSKGGRPPRVKDTDTQALESDLSSVLGLDVSIDHRGSTGTLTITYATLEQLDDLCNRLTRGI

The full ranking holds about 81,000 sequences; the median of “one-hybrid fitness for binding parS DNA” is about -0.17, and the highest 2% start at about 0.51. Some of the results follow.

Variants of B1 are the subject of the assay. Put plainly: one-hybrid fitness for binding parS DNA (scaled: cognate 1, non-cognate 0); higher = stronger binding. Particulars: with parS DNA site. In outline: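 The reporter was HIS3, with the binding site 19 bp from the promoter, in E. coli USO used for bacterial one-hybrid selection of Caulobacter ParB libraries with four specificity codons randomised. Growth was on M9 lacking histidine, with 0.1 mM IPTG and 5 mM 3-AT, for 48 hours at 37°C. Illumina sequencing covered plasmids before and after selection; three replicate libraries were pooled and variants with under 10 reads dropped. A fitness score is the log change in variant-to-wild-type read ratio, rescaled to the cognate and non-cognate references.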
Take PDGR: the “one-hybrid fitness for binding parS DNA” value is at most 0.2. With LSLY, the “one-hybrid fitness for binding parS DNA” value is at most 0.2. Consider PTII, for which the “one-hybrid fitness for binding parS DNA” value is at most 0.2. VWEG: the “one-hybrid fitness for binding parS DNA” value was at most 0.2. Regarding DMSM, the “one-hybrid fitness for binding parS DNA” value was at most 0.2. Regarding PFQM, the “one-hybrid fitness for binding parS DNA” value is at most 0.2. With PHTS the figure was at most 0.2; with QTFA, at most 0.2. Regarding DRYR, the “one-hybrid fitness for binding parS DNA” value is at most 0.2. Consider AKFC, for which the “one-hybrid fitness for binding parS DNA” value was at most 0.2.

Turning to VRTT, the “one-hybrid fitness for binding parS DNA” value was at most 0.2.

On to QVLI, for which the “one-hybrid fitness for binding parS DNA” value is at most 0.2. In the case of QVVG, the “one-hybrid fitness for binding parS DNA” value is at most 0.2.

SPAM: the “one-hybrid fitness for binding parS DNA” value is at most 0.2. Consider RACT, for which the “one-hybrid fitness for binding parS DNA” value amounted to 0.852.

Consider YRET, for which the “one-hybrid fitness for binding parS DNA” value is at most 0.2. With CDNR, the “one-hybrid fitness for binding parS DNA” value was at most 0.2.

On to PWVG, for which the “one-hybrid fitness for binding parS DNA” value was at most 0.2. As for NPFY, the “one-hybrid fitness for binding parS DNA” value is at most 0.2. On to YYRV, for which the “one-hybrid fitness for binding parS DNA” value was at most 0.2. With QYCI the figure was at most 0.2; with SRTD, at most 0.2; with WRTR, at most 0.2. Next, SIST: at most 0.2. Take KKPT: the “one-hybrid fitness for binding parS DNA” value is at most 0.2. Next, QQRS: at most 0.2; PIFL: at most 0.2; KRRM: at most 0.2.

Take KEPC: the “one-hybrid fitness for binding parS DNA” value is 0.255. Regarding TSTT, the “one-hybrid fitness for binding parS DNA” value was at most 0.2. With NSWS, the “one-hybrid fitness for binding parS DNA” value was at most 0.2. Turning to SKDC, the “one-hybrid fitness for binding parS DNA” value was at most 0.2. As for RLHK, the “one-hybrid fitness for binding parS DNA” value was at most 0.2. GGNT: the “one-hybrid fitness for binding parS DNA” value is at most 0.2. YVHR: the “one-hybrid fitness for binding parS DNA” value is at most 0.2. With CTEL the figure was at most 0.2. With QYDA, the “one-hybrid fitness for binding parS DNA” value was at most 0.2. Regarding PNPE, the “one-hybrid fitness for binding parS DNA” value was at most 0.2. Turning to KTNN, the “one-hybrid fitness for binding parS DNA” value was at most 0.2.

As to KFFY, the “one-hybrid fitness for binding parS DNA” value was at most 0.2. As for CKLR, the “one-hybrid fitness for binding parS DNA” value is at most 0.2. For the variant ASFG, the “one-hybrid fitness for binding parS DNA” value was at most 0.2. Next, ALLH: at most 0.2. In the case of PSFP, the “one-hybrid fitness for binding parS DNA” value is at most 0.2. In the case of VTIT, the “one-hybrid fitness for binding parS DNA” value is at most 0.2. With RKVF the figure was at most 0.2; with PCCR, at most 0.2. Regarding ADTF, the “one-hybrid fitness for binding parS DNA” value was at most 0.2.

In the case of AIRF, the “one-hybrid fitness for binding parS DNA” value was at most 0.2. With DAWR the figure was at most 0.2; with QQWF, at most 0.2. Turning to TRPW, the “one-hybrid fitness for binding parS DNA” value is at most 0.2. For the variant YESG, the “one-hybrid fitness for binding parS DNA” value is at most 0.2. NLEG: the “one-hybrid fitness for binding parS DNA” value is at most 0.2. For MIVV, the “one-hybrid fitness for binding parS DNA” value is at most 0.2.

For the variant QAHI, the “one-hybrid fitness for binding parS DNA” value is at most 0.2. Take ARMY: the “one-hybrid fitness for binding parS DNA” value was at most 0.2. With LLCG the figure was at most 0.2.

With SESM, the “one-hybrid fitness for binding parS DNA” value is at most 0.2. As to GLCR, the “one-hybrid fitness for binding parS DNA” value is at most 0.2. Turning to TLWW, the “one-hybrid fitness for binding parS DNA” value is at most 0.2. Next, RVNQ: at most 0.2. Next, FGDG: at most 0.2. Turning to YKCE, the “one-hybrid fitness for binding parS DNA” value is at most 0.2. For the variant CWHS, the “one-hybrid fitness for binding parS DNA” value is at most 0.2. Turning to LALC, the “one-hybrid fitness for binding parS DNA” value was at most 0.2. AQSM: the “one-hybrid fitness for binding parS DNA” value was at most 0.2. For the variant QYMV, the “one-hybrid fitness for binding parS DNA” value is at most 0.2. For VNRP, the “one-hybrid fitness for binding parS DNA” value is at most 0.2.

Consider RLIH, for which the “one-hybrid fitness for binding parS DNA” value amounted to 0.21. Regarding QTGT, the “one-hybrid fitness for binding parS DNA” value was at most 0.2. As for KFVR, the “one-hybrid fitness for binding parS DNA” value is at most 0.2. In the case of GMCA, the “one-hybrid fitness for binding parS DNA” value was at most 0.2. As for YQDG, the “one-hybrid fitness for binding parS DNA” value was at most 0.2. Turning to VGDA, the “one-hybrid fitness for binding parS DNA” value was at most 0.2. For FLKC, the “one-hybrid fitness for binding parS DNA” value is at most 0.2. Consider NMKR, for which the “one-hybrid fitness for binding parS DNA” value was at most 0.2. NHLG: the “one-hybrid fitness for binding parS DNA” value was at most 0.2. Regarding NYAM, the “one-hybrid fitness for binding parS DNA” value was at most 0.2. Take ETAI: the “one-hybrid fitness for binding parS DNA” value is at most 0.2. In the case of TNAN, the “one-hybrid fitness for binding parS DNA” value is at most 0.2. For SNDD, the “one-hybrid fitness for binding parS DNA” value was at most 0.2. Turning to QSNE, the “one-hybrid fitness for binding parS DNA” value is at most 0.2.

With MTQH, the “one-hybrid fitness for binding parS DNA” value was at most 0.2. Next, AHKT: at most 0.2. With LWGS, the “one-hybrid fitness for binding parS DNA” value was at most 0.2.

As to RRND, the “one-hybrid fitness for binding parS DNA” value is at most 0.2. With RSKD, the “one-hybrid fitness for binding parS DNA” value is at most 0.2. As to RVAA, the “one-hybrid fitness for binding parS DNA” value was 0.582. Take LLIR: the “one-hybrid fitness for binding parS DNA” value was at most 0.2. On to MVDG, for which the “one-hybrid fitness for binding parS DNA” value was at most 0.2. On to DMNV, for which the “one-hybrid fitness for binding parS DNA” value is at most 0.2. For EFTR, the “one-hybrid fitness for binding parS DNA” value is at most 0.2.

Take LQYA: the “one-hybrid fitness for binding parS DNA” value is at most 0.2. With LSRT the figure was at most 0.2.

Turning to TSNC, the “one-hybrid fitness for binding parS DNA” value is at most 0.2. With RENT the figure was at most 0.2; with KAWR, at most 0.2. TCMD: the “one-hybrid fitness for binding parS DNA” value was at most 0.2. Turning to LYSG, the “one-hybrid fitness for binding parS DNA” value is at most 0.2. As to QYDF, the “one-hybrid fitness for binding parS DNA” value was at most 0.2.

Take VKQG: the “one-hybrid fitness for binding parS DNA” value was at most 0.2. Take PPLC: the “one-hybrid fitness for binding parS DNA” value is at most 0.2. As for GRLG, the “one-hybrid fitness for binding parS DNA” value was at most 0.2. Regarding RRWL, the “one-hybrid fitness for binding parS DNA” value was at most 0.2. For RWNP, the “one-hybrid fitness for binding parS DNA” value is at most 0.2. With GRSS the figure was at most 0.2; with ASYM, at most 0.2.

Turning to YSTF, the “one-hybrid fitness for binding parS DNA” value was at most 0.2. As for KILW, the “one-hybrid fitness for binding parS DNA” value was at most 0.2. Next, LDPR: at most 0.2. Next, RYLT: 0.911; TFTK: at most 0.2. In the case of VIMF, the “one-hybrid fitness for binding parS DNA” value was at most 0.2. As for RTKY, the “one-hybrid fitness for binding parS DNA” value worked out at 0.89. Take RINR: the “one-hybrid fitness for binding parS DNA” value was at most 0.2. On to VTTF, for which the “one-hybrid fitness for binding parS DNA” value is at most 0.2. On to TVDL, for which the “one-hybrid fitness for binding parS DNA” value was at most 0.2. On to CRLE, for which the “one-hybrid fitness for binding parS DNA” value is at most 0.2. As for KITS, the “one-hybrid fitness for binding parS DNA” value was at most 0.2. As for SSSC, the “one-hybrid fitness for binding parS DNA” value was at most 0.2. Next, EQFV: at most 0.2; YTPT: at most 0.2; HPDG: at most 0.2. On to LTMA, for which the “one-hybrid fitness for binding parS DNA” value was determined as 0.262. Turning to RMYL, the “one-hybrid fitness for binding parS DNA” value is at most 0.2.

As to THKG, the “one-hybrid fitness for binding parS DNA” value is at most 0.2.

On to LPRP, for which the “one-hybrid fitness for binding parS DNA” value was at most 0.2. With TVTN, the “one-hybrid fitness for binding parS DNA” value was at most 0.2.

As for YKNY, the “one-hybrid fitness for binding parS DNA” value was at most 0.2. QCFP: the “one-hybrid fitness for binding parS DNA” value was at most 0.2. Next, QPKT: at most 0.2; TGKL: at most 0.2; HKKF: at most 0.2. In the case of PIIR, the “one-hybrid fitness for binding parS DNA” value was at most 0.2.

With QMVI, the “one-hybrid fitness for binding parS DNA” value is at most 0.2. For the variant PRTH, the “one-hybrid fitness for binding parS DNA” value was at most 0.2. With HKKG the figure was at most 0.2.

Turning to ADSA, the “one-hybrid fitness for binding parS DNA” value is at most 0.2.

For QMGM, the “one-hybrid fitness for binding parS DNA” value is at most 0.2. On to QKAR, for which the “one-hybrid fitness for binding parS DNA” value is at most 0.2. With MANY, the “one-hybrid fitness for binding parS DNA” value is at most 0.2. Consider QAWH, for which the “one-hybrid fitness for binding parS DNA” value was at most 0.2. Next, ICAV: at most 0.2; PKFV: at most 0.2. Consider MYQR, for which the “one-hybrid fitness for binding parS DNA” value is at most 0.2. Next, RNHC: 0.798. RNGK: the “one-hybrid fitness for binding parS DNA” value was at most 0.2. Next, KNLN: at most 0.2; VNIM: at most 0.2. Regarding YPSM, the “one-hybrid fitness for binding parS DNA” value is at most 0.2. Regarding MRDR, the “one-hybrid fitness for binding parS DNA” value was at most 0.2.

Take GARH: the “one-hybrid fitness for binding parS DNA” value was at most 0.2.

Source of the values: a collection of fitness landscapes (doi:10.1016/j.celrep.2020.107928).
